Measurements published in the supplement of paper PMC11417369.
The list shows a part of the results.

tested on: PfHDP1 homeodomain (GST-tagged); test: gcPBM binding intensity (ln(normalized median fluorescence intensity)); higher = stronger DNA binding
Procedure, shortened: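 Alexa488 anti-GST antibody, scanned at 488 nm, detected GST-tagged P. falciparum DNA-binding domains that had been expressed in E. coli and incubated for 1 h on an Agilent 4 × 180k array. The array carried primer-extended double-stranded 36-bp intergenic genomic probes and negative controls. Binding intensity is the highest Masliner-normalised natural-log median intensity across replicate spots of either orientation of each probe.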

Sequence	gcPBM binding intensity (ln)
TTGTTTCAAGAAAAAATCGAAAAACATAGAAAAAAA [XGTACX_negctrl_site615]	6.32
TCATATTAATTTGATAGTACATATACTTTGAAGTCC [XGTACX_site3767]	6.51
TGTATATAAACAAGGGGTACAATAATATAAATAAAT [XGTACX_site8675]	6.61
TCACATACATTACTTACACACCATATTAATATATAC [CACACA_site8047]	7.11
AATAAAAAATAAAAAATAAACAGTATACATATATAT [GTGCAC_negctrl_site31]	6.76
AAAAATATAATATATCTAAAATTTTTCATTAAATAT [XGTACX_negctrl_site274]	6.16
TTATATATAGAATAAACATGCATTTGTATATGAATA [TGCATGCA_site604]	6.61
ATAAATAAAAATACATGAACAGGTCAGGTTATTTTT [CACACA_negctrl_site1007]	6.14
ACATATATATATTTATATATATATATATATATGTGA [CACACA_negctrl_site613]	6.71
TTTTTTTTTTTTTTTACACACTATAGGGAAAAAAAA [CACACA_site1916]	6.48
TTTATTAGATAACGATAAACGAAAAAAAAAAAATAA [GTGCAC_negctrl_site81]	6.37
ATAATATAAATAAAGCGTACTTAATTTTATATATAT [XGTACX_site4626]	6.17
TGTTGTAACAAAAGTACACACACATTTCTATAAATT [CACACA_site8894]	6.29
ATTACATAACAATATACACACTATTGATTAAAGAGA [CACACA_site5602]	6.74
AACAGACATAGACACACACACATATATTTATTTATA [CACACA_site7571]	6.93
ATGCAAATAATATAAAGTACACAACATCGCCCAAAG [XGTACX_site1825]	7
TTTTTTAAATTTTGAATTATAACTACATTAAAGAAA [GTGCAC_negctrl_site279]	6.07
TATTTAAAAGTATATACACACAACTGGAATGAAAAG [CACACA_site4126]	7.33
CATTATGTCATAAATGCACACATATATATATACATA [CACACA_site8454]	9.98
AAAATTAAAAAAATAAATACATTATATAATTAAAAA [CACACA_negctrl_site1426]	6.35
TATGTATGCCCTAATGCATGTGAACAAAATAATATA [TGCATGCA_site407]	7
ATTATAACACCTCCCCCCCTTTTTTTATGAAGACCA [CACACA_negctrl_site1043]	8.51

Sequence	gcPBM binding intensity (ln)
TATTTTAATCGTAAGTGTACTCTTTTAAGTATATGT [XGTACX_site8591]	6.27
TTCTTAAAATATGAAAGTACATAGGCATTATATATT [XGTACX_site8400]	6.13
ATAAACTGAGTGGTTACACACAAAACCAATAACTTT [CACACA_site7601]	6.15
ATATAGACACACACATGTACATATGCCAACGTGATA [XGTACX_site3828]	6.68
ACTATATAATATAATATATTATAATATATTATATTA [GTGCAC_negctrl_site140]	6.58
TATATATATATATATTGTACTTATGTTTATATTCAT [XGTACX_site6258]	9.2
TTCTTTAAAATATTATGTACACATTGCGAACAGTTT [XGTACX_site5418]	7.02
AGTTTATTTATATACACACACATATAAATATTATAG [CACACA_site6522]	6.91
ATATATATTTATGTATCACACACAAAAAAAAAAAAT [CACACA_site7973]	6.58
TATGCAAGGAACCACACACACACACCGAAATGTATA [CACACA_site4573]	6.85
TTTTTTATTAGTATCTGTACACATTGGTATTTGTAT [XGTACX_site6682]	6.76
AATAAATAAATATATATATATATATAATATCATAAA [CACACA_negctrl_site337]	6.48
ATATTGATGTATTGTTTTTTTTTTTTCTTTTTTTTT [CACACA_negctrl_site1238]	6.33
CCATGCATACATTCTTGTACACATTTCTATTATGAG [XGTACX_site39]	6.84
GAATTCAACAAAAAAAGTACTCTACATAAAATAATG [XGTACX_site175]	6.48
TTATAAAAGGACTTCTGTACGAATTTTTTTTAATAA [XGTACX_site1411]	5.57
GAACGAAACTTTCTTACACACATTGAAATTTTTTTC [CACACA_site1779]	6.78
TACTCACAATGGGGTCTACAAAAAAAAAAAAATAAA [XGTACX_negctrl_site229]	6.15
TCAAGAATTATATAAACACACATACATACACCCATA [CACACA_site5126]	7.03
TTATAATAAACCTATACACACATAAATAAATAAATA [CACACA_site2581]	6.68
TATGTATATATTTGTGCACACCAAAGTTTGATTTTA [CACACA_site1861]	11.4
AATAATATTTATTTTTGTACATATGTGCATTATAAA [XGTACX_site3682]	11.2

Sequence	gcPBM binding intensity (ln)
ATTAATTTTATATATGCACACAAAATATGTTCATAT [CACACA_site9350]	9.89
ATGATCATAAAACACACACACAAAAAAAAAAAAAAA [CACACA_site1805]	6.32
TAACATCCTAATGTCACACATGTTATAGGTTTAAAT [CACACA_site5649]	6.22
TTCTGGTGTAAATGCACACAGAAGAAGAAAAAAAAA [CACACA_site3685]	10.1
TAATTTAATTTTCCAAGAAAAAAAAAAGAAAAAAGA [CACACA_negctrl_site1703]	5.88
TACACCAGTTGTGGGAGTACACAAAAAAAGGGAAAA [XGTACX_site6047]	6.64
TTCTGTTCAAAATATGAACACACACCGATATATATA [CACACA_site8637]	6.72
AAAAATATAAAGAAATGTACTTATAAAAATCCCTAC [XGTACX_site3824]	6.27
AATATCATAAAATAAAGTACAAATATATATTGAAAA [XGTACX_site8813]	6.69
TGCAGTCTGGAGAAAAGTACACAGTATCTGGTAGCT [XGTACX_site2013]	6.14
CTTTATCTTTTTCATTGTACTTTATTTTAAAATTAA [XGTACX_site4858]	6.86
AATAGATTTTTATGCGTGCACACATTTAACAAAAAA	10.3
GTGCTAGTATTTAATACACACAATTGAAGTTCCTGA [CACACA_site1452]	6.61
GCTTGTTCAAAAATGAGTACATACAAATAGTTGTAT [XGTACX_site1770]	6.51
TATTTATGTAGATACACACCCATGTTATATGGAGGT [CACACA_site3461]	6.32
TTTCTTTTTTTTTTTATTTACCTGAATTATGTATTA [TGCATGCA_negctrl_site345]	6.35
TTTGAAATATTTATTTGTACATATACACACTTAAAT [XGTACX_site8321]	6.48
ATATTATTTTGTCAGGGTACATTCCATAAGTTTTTT [XGTACX_site6855]	6.55
CTCGTATATATAATACGTACATATTATATATATATA [XGTACX_site1704]	8.6
TTTACATACAAATTAACACACATATAGAAAAGAGAA [CACACA_site1889]	7.07
TCCTTTCTTTTTTAAACATGCATATGTAATATAAAT [TGCATGCA_site979]	6.53
AAAAAAAAAAAAAAAAAAACCACAAACAAATATGAA [TGCATGCA_negctrl_site34]	6.84

Sequence	gcPBM binding intensity (ln)
CCTTCATCATATTTAACACACAGAGAAAAAGCGGAT [CACACA_site274]	7.28
ATAATATAATAATACACACTCATTATATATATAAAG [CACACA_site3956]	6.65
TTTTAAAATATATTTGTATATATATATATATATATA [XGTACX_negctrl_site536]	9.48
AAAAAAAATAAACACACACACATACCCATAAATATA [CACACA_site5980]	7.01
TTTTGATATAAAAAAAGTACATTAATAATATTAATT [XGTACX_site4248]	6.14
TAAATAATAATAAATGTGCACAGGTATTAACAAAAA [GTGCAC_site9988]	10.6
CAGTATTCTTCTATATGTACTTATTTAAATATTCTT [XGTACX_site7555]	6.64
ATGATATGGATAAATACACACAATAAAATAATGTCT [CACACA_site6786]	6.5
TTTATTTATTTATGTTGTACAAGTTTATACTGGAAT [XGTACX_site6479]	6.8
TTTTAACAAAACAAAACAAAATAATATAAAGATAAC [TGCATGCA_negctrl_site154]	7.09
AATCAAAATTCATTAACACACAATTTTAATATTCTT [CACACA_site5178]	6.11
TATTTTTATAAGAGCATGCACTGTTTAAAATGGTAT	9.74
TTTTTTAAAATATGGACACACATATATATATATGTA [CACACA_site2784]	6.44
TAAAATTTAAAAAGGTGTACACTATAAATTAAAATA [XGTACX_site2081]	6.72
AGAAAGAATGAAAAATGTACATATATGTAATAGCTA [XGTACX_site364]	6.76
AGGTCACATTTGTCCTCACACATAGATAAATATATA [CACACA_site5460]	6.31
ATAATTTGATCAATTTTTCATTTTTCATTTTTTTAA [CACACA_negctrl_site1252]	6.48
GTCAAAAATAATATATGTACTTATAATAGATAAATG [XGTACX_site7755]	6.44
AATTAGCATTAAAAATGTACAAAAGAAAAAAATATA [XGTACX_site3816]	6.43
ATAAAATCATTCAATGGTACAGAAATACAAAATGTA [XGTACX_site6739]	6.48
TTAACATATGACATTTTTTCACCCTTCCTTTATTTT [CACACA_negctrl_site1192]	6.7
